Laboratory results from PMC4492818.
These are yes or no findings as the source states them, for the method shown. In cells and extracts the contact can be indirect. Some binding calls cover weakened binding; strength is not graded here. For part of these data: Sequences can lack the tags named with a protein.

Amino acid sequences for entries named in this document (tags omitted).
UniProt Q13485: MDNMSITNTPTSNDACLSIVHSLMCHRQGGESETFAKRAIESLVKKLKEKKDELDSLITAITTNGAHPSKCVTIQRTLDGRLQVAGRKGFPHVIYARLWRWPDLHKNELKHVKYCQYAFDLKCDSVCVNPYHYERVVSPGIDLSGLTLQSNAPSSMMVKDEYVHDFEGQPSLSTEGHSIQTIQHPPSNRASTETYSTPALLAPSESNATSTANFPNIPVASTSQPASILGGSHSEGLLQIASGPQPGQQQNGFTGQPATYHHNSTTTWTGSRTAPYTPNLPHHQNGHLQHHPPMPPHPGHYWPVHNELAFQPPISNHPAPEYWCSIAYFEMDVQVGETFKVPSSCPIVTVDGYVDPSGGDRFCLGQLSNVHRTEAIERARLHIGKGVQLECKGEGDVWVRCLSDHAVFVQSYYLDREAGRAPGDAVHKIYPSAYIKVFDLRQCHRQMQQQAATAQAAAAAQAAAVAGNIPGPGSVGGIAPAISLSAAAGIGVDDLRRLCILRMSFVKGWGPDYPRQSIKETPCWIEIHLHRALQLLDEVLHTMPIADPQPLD

Assays:
[1] = target: HA-Smad4 (UniProt Q13485); experiment: co-IP; plasmids co-transfected into HEK293 cells; lysates (PBS, 0.5% Triton X-100, 20 mM HEPES pH 7.4, 150 mM NaCl) immunoprecipitated with anti-HA, anti-Myc or the indicated antibodies and protein A/G agarose at 4°C for 12 h; immunoblot with anti-Myc or anti-HA
[2] = target: T1, HA-Pellino-1 (full-length Pellino-1) (UniProt Q96FA3); experiment: as above
T1 sequence: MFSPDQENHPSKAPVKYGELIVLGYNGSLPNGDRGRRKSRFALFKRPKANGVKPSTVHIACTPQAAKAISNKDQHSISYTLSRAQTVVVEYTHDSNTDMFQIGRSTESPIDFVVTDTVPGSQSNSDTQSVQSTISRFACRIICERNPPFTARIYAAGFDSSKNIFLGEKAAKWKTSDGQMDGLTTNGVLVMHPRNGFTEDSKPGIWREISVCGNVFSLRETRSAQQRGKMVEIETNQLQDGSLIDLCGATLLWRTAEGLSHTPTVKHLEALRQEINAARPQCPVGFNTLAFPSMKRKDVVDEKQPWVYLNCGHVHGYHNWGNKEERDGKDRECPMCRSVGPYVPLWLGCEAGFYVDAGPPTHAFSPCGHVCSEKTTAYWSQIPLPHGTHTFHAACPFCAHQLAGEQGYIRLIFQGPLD

[3] = target: T2, endogenous Pellino-1 (mouse cells) (mouse (endogenous in RAW264.7 and in primary peritoneal macrophages)) (UniProt Q8C669); experiment: co-IP; as a3: synthetic Smaducin-6 added to primary peritoneal macrophages, loss of endogenous Pellino-1 complexes read by immunoprecipitation; only the binder purified
T2 sequence: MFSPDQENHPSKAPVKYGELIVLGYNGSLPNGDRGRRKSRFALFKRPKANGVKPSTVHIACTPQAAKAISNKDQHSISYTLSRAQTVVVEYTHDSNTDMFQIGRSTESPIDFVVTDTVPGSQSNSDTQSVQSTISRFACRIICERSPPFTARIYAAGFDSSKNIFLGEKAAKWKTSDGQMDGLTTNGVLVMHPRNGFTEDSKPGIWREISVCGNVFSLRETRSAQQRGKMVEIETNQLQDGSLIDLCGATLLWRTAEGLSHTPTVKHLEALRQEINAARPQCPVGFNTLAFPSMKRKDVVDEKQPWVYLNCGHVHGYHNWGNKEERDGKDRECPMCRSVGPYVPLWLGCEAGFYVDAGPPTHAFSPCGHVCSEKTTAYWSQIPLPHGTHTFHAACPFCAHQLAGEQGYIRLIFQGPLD

B1: Myc-Smad6 MH2 (Smad6 MH2 domain, amino acids 332-496) (domain or fragment, UniProt O43541 332-496)
chain: CSVAYWEHRTRVGRLYAVYDQAVSIFYDLPQGSGFCLGQLNLEQRSESVRRTRSKIGFGILLSKEPDGVWAYNRGEHPIFVNSPTLDAPGGRALVVRKVPPGYSIKVFDFERSGLQHAPEPDAADGPYDPNSVRISFAKGWGPCYSRQFITSCPCWLEILLNNPR
- binding [1]: binds

B2: Myc-Smad6 (full-length Smad6) (protein, UniProt O43541 1-496)
chain: MFRSKRSGLVRRLWRSRVVPDREEGGSGGGGGGDEDGSLGSRAEPAPRAREGGGCGRSEVRPVAPRRPRDAVGQRGAQGAGRRRRAGGPPRPMSEPGAGAGSSLLDVAEPGGPGWLPESDCETVTCCLFSERDAAGAPRDASDPLAGAALEPAGGGRSREARSRLLLLEQELKTVTYSLLKRLKERSLDTLLEAVESRGGVPGGCVLVPRADLRLGGQPAPPQLLLGRLFRWPDLQHAVELKPLCGCHSFAAAADGPTVCCNPYHFSRLCGPESPPPPYSRLSPRDEYKPLDLSDSTLSYTETEATNSLITAPGEFSDASMSPDATKPSHWCSVAYWEHRTRVGRLYAVYDQAVSIFYDLPQGSGFCLGQLNLEQRSESVRRTRSKIGFGILLSKEPDGVWAYNRGEHPIFVNSPTLDAPGGRALVVRKVPPGYSIKVFDFERSGLQHAPEPDAADGPYDPNSVRISFAKGWGPCYSRQFITSCPCWLEILLNNPR
- binding [2]: binds

B3: Smaducin-6 (palmitic acid-conjugated Smad6 amino acids 422-441) (peptide, UniProt O43541 422-441)
peptide: GRALVVRKVPPGYSIKVFDF
modifications: palmitic acid conjugated to the N-terminus
- binding [3]: binds
